Experimental data from the supplement of paper PMC10126150.
Values marked as one replicate rest on one cluster of the flow cell; about a third of the high ones do not repeat.

Test system: ATP
Assay: switch fluorescence ratio, 500 uM ATP over buffer (Cy3 cluster intensity, sum of 5 cycles each) (fold (ratio)); higher = stronger signal-on switching upon ATP binding; sequences stand for … in TCGTCGGCAGCGTCAGATGTGTATAAGAGACAGTTTTTTTTTTTTTTTTTTTTTTTTT…TC
Details: aptamer strand: ATP DNA aptamer (quencher-CACCTGGGGGAGTATTGCGGAGGAAGG + anchor), 100 nM annealed; ATP concentration: 500 uM; one replicate
Summary of the method: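 Exposure to 500 uM ATP lasted 15 min at 22 °C before imaging, and a selection-buffer image was taken beforehand, for Cy3-labelled switching-strand clusters on a modified Illumina MiSeq flow-cell annealed to 100 nM quencher-labelled ATP aptamer. Five buffer/ATP cycles were run with NaOH stripping and re-annealing between them. The fluorescence ratio per cluster is summed target-cycle over summed buffer-cycle Cy3 intensity, averaged per switch-domain sequence. Clusters outside 100-1000 RFU were excluded.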

| Sequence | switch fluorescence ratio |
| --- | --- |
| ATAACAATTG | 0.971 |
| TCAGCCTGGT | 0.989 |
| TACAGGAGT | 1.07 |
| CGCCCTACGA | 1.2 |
| ACGGCTTCGA | 0.987 |
| TCGTTCGTTC | 1 |
| TGATGTTGAG | 0.999 |
| CTATTTAGTG | 1 |
| GTAAATCCTT | 1.02 |
| ACTGCGCACG | 1.35 |
| TACCGGGACC | 1.07 |
| TGAGCCGGTA | 0.962 |
| GTGTGACGGG | 1 |
| GGTAACTACT | 0.994 |
| AGTCCCCTTT | 1.04 |
| AGTGACTCT | 0.985 |
| AGAACTTAGG | 1 |
| TGACGACGAT | 1.48 |
| AGCTTCTGTA | 1.04 |
| ACCTCTTTG | 0.991 |
| TGCAAACAAG | 0.935 |
| GCATTTCCTG | 0.975 |

| Sequence | switch fluorescence ratio |
| --- | --- |
| AAGGGTGTTA | 0.962 |
| GGTTTGGATT | 0.969 |
| TGTTATAAG | 0.985 |
| AGGCCGCAAT | 5.78 |
| TCTGTCAGAA | 0.969 |
| CGCGTGGGGT | 1.04 |
| CCACGGCTG | 1.1 |
| CTGCCGGTTT | 0.989 |
| TGGGAAGTG | 0.985 |
| CCATATACAG | 1.02 |
| TGTGAGGAAA | 1.01 |
| AACAGGGGTT | 0.979 |
| GTTATAGCGA | 0.986 |
| CCGTACAAAT | 1.78 |
| CTTCGGGGTA | 0.994 |
| GCTATATGCT | 0.951 |
| TAGTATCCTG | 0.943 |
| TCCGAGGGGC | 1.29 |
| ATAGTAAGCA | 1.03 |
| AATGTAGCTG | 1.04 |
| GTGGCGTAAA | 1.02 |
| AATCGAGATC | 1.03 |

| Sequence | switch fluorescence ratio |
| --- | --- |
| TCGAATTGAG | 0.991 |
| GTAGTTTT | 0.94 |
| CGTATCAGAT | 1.03 |
| CTCGGGCAAT | 4.01 |
| GGAGAGGAGC | 1.01 |
| AAAGCTTAGA | 0.958 |
| GGGTTGGTAT | 0.965 |
| TTAGACAGGT | 1.03 |
| AGAGAACTGT | 0.93 |
| GGTCCCTATT | 0.972 |
| ACGGAGGAGT | 1.04 |
| CGTGGTATCC | 0.989 |
| TTCGGTTAGG | 1.01 |
| ATATACCAAG | 1.04 |
| CAGCCGGATT | 1.05 |
| CGCATGGCTC | 1.96 |
| ATGAAGGTAC | 0.975 |
| CCGCGCGCTT | 1.99 |
| CGAAGTATGT | 0.955 |
| GCAACGGGCT | 1 |
| CTGCCGCTTG | 1.16 |
| GAGGGTGGTA | 0.943 |

| Sequence | switch fluorescence ratio |
| --- | --- |
| CGCTAGGTTT | 1.03 |
| CGTGATCGC | 1.05 |
| CGGAGAATGT | 0.991 |
| AACTGAAAGG | 0.949 |
| TTACACATGG | 1.07 |
| TCATGGTACA | 1.07 |
| TGAATACAG | 1.03 |
| TGGCTCTATC | 0.985 |
| TACGTGCGA | 1.22 |
| AACCTTTTAG | 1.01 |
| CACACTATGC | 1.13 |
| CTCACCCATA | 1.13 |
| CAAGGTGTAG | 1.03 |
| GCGGCATTTT | 0.972 |
| TAGATGAGGA | 0.993 |
| GAGTACCGAG | 1.07 |
| TCAAGCACT | 1.28 |
| TCAATGAGGC | 1.08 |
| GGTTTTTGCC | 0.99 |
